The other results are listed elsewhere or left out. The list includes weakly bound sequences.

This test concerns the target MaxL homodimer (UniProt P61244). Briefly: universal protein-binding microarray (PBM). The following applies: PBS-based mixture, 10 nM His-tagged protein dimer, 2% milk, 200 ng/uL BSA, 50 ng/uL salmon testes DNA, 0.02% TX-100; detection with Alexa 488 anti-His …; high values mean tight binding; most listed sequences are background and not binding sites; double strand, one strand shown.
UniProt P61244, sequence (P61244 whole entry): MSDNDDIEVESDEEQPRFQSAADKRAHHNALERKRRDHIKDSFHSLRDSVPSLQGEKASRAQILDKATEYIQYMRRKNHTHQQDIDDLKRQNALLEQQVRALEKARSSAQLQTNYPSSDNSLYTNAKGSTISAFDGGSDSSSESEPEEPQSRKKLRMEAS
Turning to CTTTCCCA, the binding signal (normalized occupancy) came out at 0.0759.

As for CTTATTTC, the binding signal (normalized occupancy) amounted to 0.0739.

Consider ATCCTCTA, for which the binding signal (normalized occupancy) is 0.0745.

As for AACATTCG, the binding signal (normalized occupancy) came to 0.0773.

On to ACAAGGGC, for which the binding signal (normalized occupancy) turned out to be 0.0747.

On to TAATATCA, for which the binding signal (normalized occupancy) is 0.0788.

With CATACTCA, the binding signal (normalized occupancy) came out at 0.0804.

Regarding GTCCCGAA, the binding signal (normalized occupancy) came out at 0.0666.

For CGGGCCAA, the binding signal (normalized occupancy) is 0.0667.

For the sequence CTGTATAC, the binding signal (normalized occupancy) came to 0.0794.

For the sequence CCTCCCGA, the binding signal (normalized occupancy) stood at 0.0695.

For the sequence CGTGTGGC, the binding signal (normalized occupancy) came to 0.0953.

CTGTGAAA: the binding signal (normalized occupancy) was 0.0728.

For GAGTAGAC, the binding signal (normalized occupancy) is 0.078.

With AAGCACGC, the binding signal (normalized occupancy) was 0.0949.

Regarding AGGGGGCA, the binding signal (normalized occupancy) was determined as 0.075.

Turning to CGGATTAA, the binding signal (normalized occupancy) was 0.0759.

CCTACTGC: the binding signal (normalized occupancy) came to 0.0676.

With CAAACTAA, the binding signal (normalized occupancy) was 0.0779.

ACAGGCAC: the binding signal (normalized occupancy) turned out to be 0.0752.

Regarding ACTCGAGC, the binding signal (normalized occupancy) amounted to 0.0729.

Consider ATGAGCCA, for which the binding signal (normalized occupancy) was 0.0853.

Turning to CCAAATTA, the binding signal (normalized occupancy) turned out to be 0.0762.

Take ATAGACCC: the binding signal (normalized occupancy) was determined as 0.0762.

For the sequence ATATTGAG, the binding signal (normalized occupancy) came out at 0.0778.

With GCTTCCTA, the binding signal (normalized occupancy) turned out to be 0.0729.

For AGGTGTTG, the binding signal (normalized occupancy) turned out to be 0.0828.

CACGTTTA: the binding signal (normalized occupancy) was found to be 0.0986.

With ATCGGTTA, the binding signal (normalized occupancy) came out at 0.0691.

With ACCTATCT, the binding signal (normalized occupancy) stood at 0.0788.

On to AGTACACC, for which the binding signal (normalized occupancy) worked out at 0.076.

Take CCTTGGAG: the binding signal (normalized occupancy) turned out to be 0.0694.

For CAGCCAGA, the binding signal (normalized occupancy) was determined as 0.0648.

Take ACAACTCA: the binding signal (normalized occupancy) came to 0.0775.

For AGTCCTCC, the binding signal (normalized occupancy) was 0.072.

With TAACCACA, the binding signal (normalized occupancy) came out at 0.0809.

GAATTCGA: the binding signal (normalized occupancy) stood at 0.0745.

For the sequence TAACTCCA, the binding signal (normalized occupancy) came out at 0.0737.

CTGAGCAG: the binding signal (normalized occupancy) turned out to be 0.0751.

Consider ATAACACG, for which the binding signal (normalized occupancy) was found to be 0.0958.

For CTTCGAAA, the binding signal (normalized occupancy) amounted to 0.0722.

On to GGGCATAA, for which the binding signal (normalized occupancy) amounted to 0.0796.

Consider AGGGACCG, for which the binding signal (normalized occupancy) came out at 0.0665.

For ATTAATGC, the binding signal (normalized occupancy) was found to be 0.0728.

Regarding CATTCGGA, the binding signal (normalized occupancy) was determined as 0.0783.

Consider ATTCGCAG, for which the binding signal (normalized occupancy) amounted to 0.0756.

Consider TTGAGCAA, for which the binding signal (normalized occupancy) is 0.0701.

For the sequence GGCTACCA, the binding signal (normalized occupancy) worked out at 0.0733.

In the case of ATTCGTCC, the binding signal (normalized occupancy) came to 0.0739.

On to ACATGCCA, for which the binding signal (normalized occupancy) is 0.0967.

Regarding ACTGGTGA, the binding signal (normalized occupancy) turned out to be 0.0744.

On to CGATTAAA, for which the binding signal (normalized occupancy) turned out to be 0.0731.

As for CTTCCATA, the binding signal (normalized occupancy) turned out to be 0.0776.

AAACTCTG: the binding signal (normalized occupancy) came out at 0.0674.

As for GCACTCCC, the binding signal (normalized occupancy) was found to be 0.078.

Take CCTCCTAA: the binding signal (normalized occupancy) was found to be 0.0722.

As to GACACGCC, the binding signal (normalized occupancy) was 0.0849.

In the case of GAGGTAGA, the binding signal (normalized occupancy) worked out at 0.0721.

For ATACAATA, the binding signal (normalized occupancy) was 0.0777.

Take AAAGATCG: the binding signal (normalized occupancy) was determined as 0.0722.

With CACGGTAC, the binding signal (normalized occupancy) came to 0.0749.

As for GCGATCGA, the binding signal (normalized occupancy) amounted to 0.0695.

ATAAGAAG: the binding signal (normalized occupancy) was found to be 0.0732.

As for GTAAAGGA, the binding signal (normalized occupancy) stood at 0.0762.

With AGGCCATA, the binding signal (normalized occupancy) came out at 0.0817.

Regarding CACTAAGA, the binding signal (normalized occupancy) was 0.0711.

Consider GCGGAGCC, for which the binding signal (normalized occupancy) is 0.0664.

Regarding ACCTCCAA, the binding signal (normalized occupancy) turned out to be 0.0778.

As for ACCCCATC, the binding signal (normalized occupancy) worked out at 0.0823.

On to CTGTCGTA, for which the binding signal (normalized occupancy) came out at 0.0747.

For the sequence ATAGGTTC, the binding signal (normalized occupancy) amounted to 0.0754.

Regarding CACCGGAA, the binding signal (normalized occupancy) is 0.0719.

With ATGTTCGA, the binding signal (normalized occupancy) came out at 0.0802.

In the case of ACGGGAGC, the binding signal (normalized occupancy) came to 0.0675.

For AAGTAGTG, the binding signal (normalized occupancy) is 0.0752.

Turning to AAGTGGCA, the binding signal (normalized occupancy) was determined as 0.0762.

Consider GGGAGCCC, for which the binding signal (normalized occupancy) amounted to 0.0687.

For AAAAAGCG, the binding signal (normalized occupancy) stood at 0.0696.

For the sequence ACACTTTC, the binding signal (normalized occupancy) was 0.0805.

For AATCCAGT, the binding signal (normalized occupancy) is 0.0747.

Consider ACATGTCG, for which the binding signal (normalized occupancy) was found to be 0.1.

With ACCAAAAG, the binding signal (normalized occupancy) turned out to be 0.0706.

With CCGTGGTC, the binding signal (normalized occupancy) was 0.074.

As to AGGCCTAG, the binding signal (normalized occupancy) amounted to 0.0723.

ATCCCGAG: the binding signal (normalized occupancy) turned out to be 0.0743.

In the case of ATACCACG, the binding signal (normalized occupancy) was determined as 0.0991.

Consider AGCTTAAG, for which the binding signal (normalized occupancy) came out at 0.0724.

As for CACTGTGA, the binding signal (normalized occupancy) turned out to be 0.0714.

For GCGAAAGC, the binding signal (normalized occupancy) was determined as 0.0658.

Regarding AATTCGCA, the binding signal (normalized occupancy) was determined as 0.0713.

In the case of GTATGGAA, the binding signal (normalized occupancy) was determined as 0.0836.

In the case of GACATCCC, the binding signal (normalized occupancy) was found to be 0.0774.

For the sequence AGCGTTGA, the binding signal (normalized occupancy) came to 0.0769.

On to GTCAGAAC, for which the binding signal (normalized occupancy) worked out at 0.069.

As for CCAGTACG, the binding signal (normalized occupancy) is 0.0718.

On to GTGTAGGA, for which the binding signal (normalized occupancy) came to 0.0816.

On to AGACCGCA, for which the binding signal (normalized occupancy) turned out to be 0.0699.

On to ACCTCCTG, for which the binding signal (normalized occupancy) is 0.0781.

Consider GGGTGCTA, for which the binding signal (normalized occupancy) came to 0.0789.

In the case of GCGAGTAC, the binding signal (normalized occupancy) came out at 0.0724.

For the sequence TAACCGCA, the binding signal (normalized occupancy) was found to be 0.0826.

For the sequence TACCACAA, the binding signal (normalized occupancy) stood at 0.0831.

Turning to TCAGATCA, the binding signal (normalized occupancy) amounted to 0.0735.

For ATAGACCG, the binding signal (normalized occupancy) was 0.0706.

Take ATTCACCA: the binding signal (normalized occupancy) came out at 0.0797.

On to AGCGGCAG, for which the binding signal (normalized occupancy) was 0.0717.

On to CGCAGATC, for which the binding signal (normalized occupancy) is 0.0729.

On to CTACGGAG, for which the binding signal (normalized occupancy) was determined as 0.0699.

With ATGTTAAC, the binding signal (normalized occupancy) was 0.0793.

In the case of ATGAGTTA, the binding signal (normalized occupancy) was 0.0824.

For GCGTCTAA, the binding signal (normalized occupancy) amounted to 0.0721.

Consider AAACTTGT, for which the binding signal (normalized occupancy) was 0.0701.

Take AAGACGCT: the binding signal (normalized occupancy) was found to be 0.0681.

TGAACGAA: the binding signal (normalized occupancy) was 0.0772.

On to AGCAGGCT, for which the binding signal (normalized occupancy) was found to be 0.0693.

In the case of ATTCTACA, the binding signal (normalized occupancy) was 0.0828.

For ATGGAAGG, the binding signal (normalized occupancy) came out at 0.0804.

As to ATGACTTA, the binding signal (normalized occupancy) was 0.0813.

Turning to GATCGTAA, the binding signal (normalized occupancy) came out at 0.0757.

As to GAATGTTA, the binding signal (normalized occupancy) was found to be 0.0831.

On to CATCCAGA, for which the binding signal (normalized occupancy) is 0.0807.

As to CGTCAGAG, the binding signal (normalized occupancy) is 0.0731.

CGAACCTC: the binding signal (normalized occupancy) is 0.073.

As to AGGTCAAC, the binding signal (normalized occupancy) was 0.0749.

Regarding CATATACC, the binding signal (normalized occupancy) was determined as 0.0929.

On to AAGTGCAA, for which the binding signal (normalized occupancy) was determined as 0.0751.

For the sequence ACGTAGAT, the binding signal (normalized occupancy) worked out at 0.0803.

Regarding GTACGTTA, the binding signal (normalized occupancy) was 0.0781.

With TACAAGAA, the binding signal (normalized occupancy) was 0.0771.

In the case of GGGCACCA, the binding signal (normalized occupancy) came out at 0.0775.

ATGATCCC: the binding signal (normalized occupancy) was found to be 0.0799.

For the sequence AGAGCAGG, the binding signal (normalized occupancy) was 0.0757.

As for CCCGAAAA, the binding signal (normalized occupancy) was determined as 0.0743.

For the sequence CGGCAGCC, the binding signal (normalized occupancy) stood at 0.0724.

Consider AGCCCCAA, for which the binding signal (normalized occupancy) came out at 0.0687.

For CGAGCAAA, the binding signal (normalized occupancy) is 0.0678.

Regarding GTATAAGA, the binding signal (normalized occupancy) was 0.0826.

Regarding GGCAGCAA, the binding signal (normalized occupancy) is 0.0707.

Turning to CCCTATCG, the binding signal (normalized occupancy) was found to be 0.0744.

With ATACCCTC, the binding signal (normalized occupancy) was determined as 0.0824.

With CGCGCCAC, the binding signal (normalized occupancy) is 0.0777.

With AACGCAGG, the binding signal (normalized occupancy) was found to be 0.0676.

For the sequence ACTAACGA, the binding signal (normalized occupancy) worked out at 0.0744.

On to CTCCTTTC, for which the binding signal (normalized occupancy) was determined as 0.0775.

As to AACGATTA, the binding signal (normalized occupancy) is 0.0828.

As to AGCTTACA, the binding signal (normalized occupancy) is 0.0763.

Regarding ACCAACAT, the binding signal (normalized occupancy) worked out at 0.0789.

For the sequence CCCCAAAA, the binding signal (normalized occupancy) came to 0.0734.

With AACGAAAC, the binding signal (normalized occupancy) was 0.0737.

Turning to GAATACAA, the binding signal (normalized occupancy) came out at 0.0768.

As to CAGCTATA, the binding signal (normalized occupancy) amounted to 0.0752.

For the sequence AGCTTTGA, the binding signal (normalized occupancy) worked out at 0.0691.

CCCCATTA: the binding signal (normalized occupancy) was found to be 0.0782.

Regarding AAGCACTG, the binding signal (normalized occupancy) was found to be 0.0694.

For CCCATTCG, the binding signal (normalized occupancy) was determined as 0.0781.

As for ACCTACGC, the binding signal (normalized occupancy) was found to be 0.0714.

For the sequence CATGGCGA, the binding signal (normalized occupancy) is 0.0859.

For ATTTAACC, the binding signal (normalized occupancy) came to 0.0764.

As for GCTACGTA, the binding signal (normalized occupancy) amounted to 0.0764.

With GTGTCGAA, the binding signal (normalized occupancy) came out at 0.0779.

With ACACAAGG, the binding signal (normalized occupancy) stood at 0.084.

Regarding TATATCCA, the binding signal (normalized occupancy) was determined as 0.0839.

As for ACGATCAG, the binding signal (normalized occupancy) turned out to be 0.0767.

Turning to GTAGTAAC, the binding signal (normalized occupancy) is 0.0703.

Consider AAGATAGC, for which the binding signal (normalized occupancy) was found to be 0.0693.

Consider CTACGCCA, for which the binding signal (normalized occupancy) was 0.0777.

Turning to ATATGACG, the binding signal (normalized occupancy) stood at 0.0802.

On to GAACAATA, for which the binding signal (normalized occupancy) was determined as 0.0756.

In the case of ACTTCCAC, the binding signal (normalized occupancy) was 0.0788.

Take GCGAGACC: the binding signal (normalized occupancy) amounted to 0.0707.

Regarding GGAGGGCA, the binding signal (normalized occupancy) is 0.0793.

With CCGTGTGA, the binding signal (normalized occupancy) is 0.0836.

Values taken from publication PMC4242493.
